The whole screen tested about 110,000 compounds, of which about 40 (0.04%) were called active. The inconclusive results got no clear call from the source; some entries with a clear call stand among them for comparison. Calls come from the whole dose curve; as a rule, active = well fitted curve in the direction sought with a large enough effect in the signal ratio (not every such curve was filed as active); inconclusive = small, poorly fitted or top-dose-only effect, or a change in a side signal; inactive = flat fitted curve, though single readings scatter; the % refers to the signal ratio. Potencies beside an inconclusive call are fits to weak or partial responses and may not hold up.
Assay: IkB Signaling;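 for IkBa stabilization activation: 0% = basal untreated cells and 100% = reference inhibitor full response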
Conditions: ABC-DLBCL IkBa-CBG/CBR dual luciferase ratio (green luciferase fused to IkBa over red control in OCI-Ly3 lymphoma cells), 4 h; IkBa stabilization activation: at 57.1 µM (top of the series), scaled: untreated 0%, proteasome inhibitor 100% unless noted
Outline: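 In this assay, an IκBα–CBG68 fusion accumulates when IKK-driven degradation is blocked; native CBR normalizes for cell number. OCI-Ly3 cells were treated 4 h with compound and doxycycline, then green and red light read after Chroma-Glo addition.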
Potency is the fitted concentration of half-maximal effect.

Compound | IkBa stabilization activation | Potency
O=C(CSc1nc(=O)[nH]c2c1CCC2)NCc1ccccc1Cl | inactive | 
CCN(Cc1ccccc1)C(=O)Cn1c(=O)n(-c2ccccc2)c(=O)c2c1c1cc(C)ccc1n2C | inactive | 
COC(=O)c1[nH]c2c(c1C)C(=O)CC(c1cccs1)C2 (centres undefined) | inactive | 
O=C(CCS(=O)(=O)c1ccc(Br)cc1)Nc1ccc(F)cc1F | inconclusive: 2.1% [signal inhibitor] | 
Cc1ccc(-c2nc3ncccn3c2Nc2ccc3c(c2)OCCO3)cc1 | inconclusive: -4.77% [signal inhibitor] | 
CCc1ccc(CNc2ccc3c(c2)ncn3C(C)(C)C)cc1 | inactive | 
O=C1CC(c2nc(-c3ccccc3)no2)CN1c1ccccc1 (centres undefined) | inconclusive: 6.72% [signal inhibitor] | 
CCOc1ccc(N2CC(c3nc4ccccc4n3CCOc3ccccc3OC)CC2=O)cc1 (centres undefined) | inconclusive: -0.345% [signal inhibitor] | 
CCc1cc(=O)oc2cc(C)cc(O)c12 | inactive | 
Cc1ccc(-c2nn3c(C)nnc3s2)cc1NC(=O)c1ccc(OC(C)C)cc1 | inconclusive: 4.76% [signal inhibitor] | 
N#C/C(=C\NC(=S)c1ccncc1)c1nc2ccccc2s1 |  | inconclusive: 1.58 µM [signal inhibitor, partial curve]
CCOc1ccc(CCNC(=O)CS(=O)(=O)Cc2nc(-c3ccc(OC)cc3)oc2C)cc1 | inconclusive: 0.676% [signal inhibitor] | 
COC(=O)c1ccc(Oc2ccc3nnc(C)n3n2)cc1 | inactive | 
COc1ccc(Cn2c(=O)n(Cc3ccco3)c(=O)c3oc4ccccc4c32)cc1 | inactive | 
COc1ccc(-c2nc(CSCC(=O)N3CCN(c4cc(Cl)ccc4C)CC3)c(C)o2)cc1 | inconclusive: 5.46% [signal inhibitor] | 
O=C(Cc1ccc(Cl)c(Cl)c1)OCCN1CCCC1 | inactive | 
Cc1ccc2c(c1)N(CC(=O)NCC1COc3ccccc3O1)C(=O)CO2 (centres undefined) | inactive | 
CCN1CCCC1CNC(=O)c1cc2c(C)nc3ccccc3c2o1 (centres undefined) | inactive | 
Cc1ccc(C(C)C)c(OCC(O)CN2CCN(c3ccccc3F)CC2)c1 (centres undefined) | inconclusive: 15.3% [signal inhibitor] | 
CCOc1ccc(CCNC(=O)CN2C(=O)COc3ccc(S(=O)(=O)N4CCCC4)cc32)cc1 | inconclusive: 2.1% [signal inhibitor] | 
CCn1c(=N)c(C(=O)NCc2ccccc2)cc2c(=O)n3cccc(C)c3nc21 | inactive | 
Cc1[nH]nc2c1C(C1CC=CCC1)C(C#N)=C(N)O2 (centres undefined) | inconclusive: -5.62% [signal inhibitor] | 
Cc1ccc2[nH]c(=O)c(CN(Cc3ccc4c(c3)OCO4)Cc3nnnn3C3CCCC3)cc2c1 | inconclusive: 3.57% [signal inhibitor] | 
COc1ccc(Cl)cc1S(=O)(=O)NCc1ccc2c(c1)CCN2C(=O)c1cccc(C)c1 | inconclusive: 1.35% [signal inhibitor] | 
CCOC(=O)c1ccc(N2C(=O)c3n[nH]c(-c4ccco4)c3C2c2cccc(OC)c2)cc1 (centres undefined) | inconclusive: 7.33% [signal inhibitor] | 

Compound | IkBa stabilization activation | Potency
COc1ccc(NC(=O)CCc2c(C)nn(-c3ccc(N4CCCCC4)nn3)c2C)cc1Cl | inactive | 
CCOC(=O)c1cccc(NC(=O)CN(c2ccc(C)cc2)S(=O)(=O)c2c(C)n[nH]c2C)c1 | inconclusive: 4.34% [signal inhibitor] | 
CCn1c(C(=O)N2CCC(C(=O)NCCc3ccc(C)cc3)CC2)cc2sccc21 | inconclusive: 0.664% [signal inhibitor] | 
N#Cc1c(C(F)(F)F)cc(-c2ccc(F)cc2)nc1SCC(=O)Nc1ccccc1 | inconclusive: 18.5% [signal inhibitor] | 
Cc1ccc(CNC(=O)C(C)n2nc(C)n3c(cc4sccc43)c2=O)cc1 (centres undefined) | inactive | 
COc1ccccc1C(=O)Nc1cccc(C(=O)OCc2cc(=O)n3ccsc3n2)c1 | inconclusive: 1.4% [signal inhibitor] | 
COc1ccc(CCNC(=O)Cc2c(C)c3cc4c(C(C)(C)C)coc4c(C)c3oc2=O)cc1 | inactive | 
CCOC(=O)C1CCCN(C(=O)c2sc3nc(-c4ccccc4)cn3c2C)C1 (centres undefined) | inconclusive: 0.812% [signal inhibitor] | 
COc1cc(NC(=O)CSc2nc3ncccc3o2)cc(OC)c1 | inactive | 
C=CCn1c(SCC(=O)Nc2ccc(C(=O)OC(C)C)cc2)nnc1-c1cccs1 | inactive | 
COc1ccc(-c2noc(CSc3nc(N)c(-c4ccccc4)c(=O)[nH]3)n2)cc1 | inactive | 
C(=C\c1ccccc1)/CSc1nnc(-c2ccccn2)n1Cc1ccco1 | inconclusive: -3.22% [signal inhibitor] | 
COc1ccc(-c2nc(CS(=O)(=O)CC(=O)NCc3ccccc3Br)c(C)o2)cc1 | inconclusive: 4.47% [signal inhibitor] | 
O=C(NCCCN1CCCCCC1)c1ccc2c(c1)sc1nc(-c3ccccc3)cn12 | inactive | 
Cc1nc2cc(-c3ccccc3)nn2c(C)c1CCC(=O)Nc1ccc(F)cc1F | inconclusive: 11% [signal inhibitor] | 
COCCn1c(=S)[nH]c2cc(C(=O)N3CCN(Cc4ccc5c(c4)OCO5)CC3)ccc2c1=O | inactive | 
CCC(C(=O)Nc1ccc(C)c(C)c1)n1c(=O)c(C(F)(F)F)nc2ccccc21 (centres undefined) | inactive | 
CCOC(=O)c1c(NC(=O)COc2ccc(Cl)cc2C)sc2c1CCCCC2 | inconclusive: 12.5% [signal inhibitor] | 
CC(=O)N1c2ccccc2C(C)(c2ccc(C)cc2)CC1(C)C (centres undefined) | inactive | 
COCCn1c(=O)[nH]c2cc(C(=O)N3CCN(c4ccccc4)CC3)ccc2c1=O | inconclusive: 2.63% [signal inhibitor] | 
COc1cc2c(cc1OC)C(COc1ccc3c(C)cc(=O)oc3c1)N(C(=O)c1ccccc1C)CC2 (centres undefined) | inactive | 
COc1ccc(-n2nnnc2C2CCN(S(=O)(=O)c3ccc(C)cc3)CC2)cc1 | inconclusive: 1.02% [signal inhibitor] | 
c1ccc(OCCN2C3=NCCN3c3ccccc32)cc1 | inactive | 
CCOC(=O)COc1ccc(N)cc1CC(NC(C)=O)(C(=O)OCC)C(=O)OCC | inactive | 
